Test results reported in PubChem BioAssay AID686979 (National Center for Advancing Translational Sciences (NCATS), 2013).
Values joined by “and” are separate entries in the source; they are usually repeats but may differ in a detail not shown here. Equal values may be shown once. Screen size: about 420,000 compounds; about 50,000 (12%) were called active. The shares of active, inactive and inconclusive entries below differ from those in the screen. Calls follow the shape of the dose curve; as a rule, active = well fitted inhibition curve with a large enough effect; inconclusive = small, poorly fitted or top-dose-only effect; inactive = flat fitted curve, though single readings scatter. Potencies of inconclusive entries are doubtful fits and often do not repeat.

assay: qHTS for Inhibitors of human tyrosyl-DNA phosphodiesterase 1 (TDP1): qHTS in cells in presence of CPT; conditions: chicken DT40 Tdp1-/-;hTDP1 cells + 20 nM CPT, ATP luminescence, 48 h; activity change, negative = growth inhibition: at 46.2 µM (top of the series) unless noted; also: nearly all actives have a fitted effect of over 55% in size
How it was run: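 Chicken DT40 Tdp1-/- cells stably complemented with human TDP1 were seeded at 400 cells/well in medium containing 20 nM camptothecin, exposed to pin-transferred compounds, and grown at 37 °C for at least 48 hr. Viability was read as ATP luminescence.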
% is scaled to controls: 0 for no effect and ±100 for the full control effect; potency is read from the fitted curve at half-maximal effect; tags tell the direction and shape of the fitted curve.

Compound	Potency	activity change, negative = growth inhibition
CCN=C1NN=C(c2cc(C)n(Cc3ccco3)c2C)CS1	active: 16.4 µM	–
CN1CCN(c2ccc(CNC[C@H]3O[C@@H](n4cnc5c(=O)[nH]c(N)nc54)[C@H](O)[C@@H]3O)c(S(C)(=O)=O)c2)CC1	inactive	–
COCCNc1nc2c(-c3cccc(C(F)(F)F)c3)nnn2c2ccccc12	inactive	–
Cc1ccc2nc(SCC(=O)Nc3cccc(S(=O)(=O)NC4=NCCCCC4)c3)[nH]c2c1	inconclusive: 29.1 µM [inhibitor, single point]	–
Cn1cnc([N+](=O)[O-])c1S(=O)(=O)Oc1ccccc1	active: 0.651 µM	–
COc1ccc(OC)c(NC(=O)c2c(NCc3sccc3C)sc3c2CCCCC3)c1	active: 7.31 µM	–
O=C(NC1CCCC1)C(c1ccco1)N1CCN(c2c(Cl)cncc2Cl)CC1 (stereo not given)	inconclusive: 29.1 µM [inhibitor, single point]	–
COc1nc(OC)nc(N2CCC(C(=O)Nc3cccc4ccccc34)CC2)n1	inconclusive: 14.6 µM [inhibitor, partial curve, poor fit]	–
O=C(NCc1ccccc1)NC1(C(=O)N2CCN(c3ncccn3)CC2)CCCCC1	–	inconclusive: -31.3% [inhibitor]
COc1ccc(C2C(C(=O)NCCCN3CCOCC3)c3ccccc3C(=O)N2c2ccc(OC)cc2)cc1 (stereo not given)	inactive	–
COc1ccc2c(c1)-c1nc(NC(=O)c3ccc(OC)c(Br)c3)sc1CC2	inconclusive: 25.9 µM [inhibitor, partial curve]	–
CCN(CC)S(=O)(=O)c1ccc(N(C)CCc2ccc(OC)c(OC)c2)nc1	inconclusive: 29.1 µM [inhibitor, single point]	–
COc1ccc(CCNC(=O)c2cc3c(=O)n4ccccc4nc3n(CC3CCCO3)c2=N)cc1 (stereo not given)	active: 20.6 µM	–
Cc1ccc(N(CCC#N)C(=O)COC(=O)C2CCN(S(=O)(=O)c3ccc(C)c(C)c3)CC2)cc1	inactive	–
CC/C(=N\NC(=O)c1c(C)nc2ccccn12)c1ccc(Cl)cc1	inactive	–
COC(=O)[C@@H]1C[C@@]2(O)[C@@H](O)[C@@H](O)[C@@H](O)C[C@H]2N1Cc1ccc(-c2ccccc2)cc1	inconclusive: 36.6 µM [inhibitor, partial curve, poor fit]	–
CN(Cc1cn(C)nc1-c1ccc(Oc2ccccc2)cc1)Cc1cnc2ccccn12	inconclusive: 29.1 µM [inhibitor, single point]	–
Cc1ccc(C2(c3noc(CN(C)Cc4ccccn4)n3)CCCC2)cc1	inconclusive: 18.4 µM [inhibitor, single point]	–
O=C1NCCCc2c1oc1ccc(O)cc21	inconclusive: 9.2 µM [inhibitor, partial curve]	–
O=C(CCCN1C(=O)c2cccc3cccc(c23)C1=O)N1CCN(c2ccc(F)cc2)CC1	inconclusive: 25.9 µM [inhibitor, single point]	–
CS(=O)(=O)N(CCC(=O)O)Cc1ccccc1	inactive	–
CC(C)=CC(=O)Nc1cccc(S(=O)(=O)NC2=NCCCCC2)c1	inactive	–
COc1ccc(NS(=O)(=O)c2cccc(C(=O)N3CCN(c4ccccc4O)CC3)c2)cc1	inconclusive: 25.9 µM [inhibitor, single point]	–
COC(=O)[C@@](C)(O)C1(C(=O)SC(C)(C)C)CC1	inactive	–

Compound	Potency	activity change, negative = growth inhibition
CCC(C(=O)NC1CCCCC1)n1c2ccccc2c2nc(=O)cc(C)n21 (stereo not given)	inactive	–
CCc1ccccc1NC(=O)/C(=C/c1ccccc1)c1ccccc1	active: 20.6 µM	–
CCNC(=S)Nc1ccc(OCc2nc3ccccc3s2)cc1	active: 16.4 µM	–
CCCCCCN1C[C@@H](O)[C@H](n2cc(-c3ccc(F)cc3)nn2)C[C@@H]1c1ccc(C)cc1	inconclusive: 29.1 µM [inhibitor, single point]	–
COc1ccc(N2CCN(c3oc(COc4ccc(Cl)cc4Cl)nc3C#N)CC2)cc1	inconclusive: 25.9 µM [inhibitor, single point]	–
OCCNCC12CC3CC(CC(C3)C1)C2	inactive	–
COc1ccc(CNC(=O)CN(c2ccc(C(C)C)cc2)S(=O)(=O)c2c(C)nn(C)c2C)cc1	inconclusive: 23.1 µM [inhibitor, single point]	–
Cn1c(/C(C#N)=C2/CCCCCN2)nc2ccccc21	inconclusive: 23.1 µM [inhibitor, single point]	–
CN(Cc1ccccc1)C(=O)c1ccc(NC(=O)Cc2cccc(NC(=O)C3CCCN(C(=O)CCc4ccccc4)C3)c2)cc1 (stereo not given)	inconclusive: 29.1 µM [inhibitor, single point]	–
CCOC(=O)C1=C(C)N=c2s/c(=C\c3ccncc3)c(=O)n2C1c1ccc2c(c1)OCO2 (stereo not given)	inconclusive: 23.1 µM [inhibitor, single point]	–
Cc1ccc(CNC(=O)c2ccc3c(c2)S(=O)(=O)c2ccccc2C3=O)cc1	inconclusive: 14.6 µM [inhibitor, partial curve]	–
O=[N+]([O-])c1cc(Cl)c2cccnc2c1O	inconclusive: 16.4 µM [inhibitor, single point]	–
Cc1cc(C)c(C)c(OCC(=O)Nc2ccc(S(=O)(=O)Nc3nc(C)cc(C)n3)cc2)c1	inactive	–
Clc1ccc(-c2ccn[nH]2)cc1	inactive	–
CCCn1cnc2c(SCCc3ccccc3)nc(N)nc21	inactive	–
COc1cccc(/C=C2\SC(=S)N(CCCC(=O)N3CCOCC3)C2=O)c1	active: 18.4 µM	–
CCC(=O)N1CCc2cc(Br)cc(S(=O)(=O)CCC(=O)N3CCN(c4ccc(F)cc4)CC3)c21	active: 20.6 µM	–
O=C(c1cc(C2CCCCN2S(=O)(=O)Cc2ccccc2)on1)N1CCOCC1 (stereo not given)	inactive	–
N#Cc1ccccc1OCC(=O)Nc1cc(S(=O)(=O)N2CCCCC2)ccc1N1CCOCC1	inconclusive: 29.1 µM [inhibitor, single point]	–
CC(C)(C)C(=O)c1sc2nc(-c3cccs3)cc(C(F)(F)F)c2c1N	inactive	–
CCn1nc(C)c(/C=N/NC(=O)CSc2ccccn2)c1C	inactive	–
COc1ccc2c(c1)c(C(O)CN1CCN(Cc3ccc4c(c3)OCO4)CC1)c(C)n2C (stereo not given)	inconclusive: 23.1 µM [inhibitor, single point]	–
O=C(CSC1=Nc2ccccc2N=C(c2ccc(F)cc2)C1)Nc1cccc(C(F)(F)F)c1	inconclusive: 16.4 µM [inhibitor, partial curve, poor fit]	–
COc1ccc(-c2noc(CCC(=O)NCC3CCN(Cc4cccc(C)c4)CC3)n2)cc1	inconclusive: 20.6 µM [inhibitor, single point]	–

Compound	Potency	activity change, negative = growth inhibition
CCc1ccccc1OCC(=O)Nc1cccc(S(=O)(=O)NC2=NCCCCC2)c1	active: 18.4 µM	–
CCCCC1C2=C(CC(C)(C)CC2=O)OC2=C1C(=O)CC(C)(C)C2	inconclusive: 29.1 µM [inhibitor, single point]	–
O=C(C[n+]1cnn(CC(=O)c2ccc(Cl)cc2Cl)c1)c1ccc([N+](=O)[O-])cc1	inconclusive: 20.6 µM [inhibitor, single point]	–
CCNC(=O)C1(C)CCCN(Cc2noc(-c3ccccc3OC)n2)C1 (stereo not given)	inconclusive: 20.6 µM [inhibitor, single point]	–
CCOC(=O)C1CCN(C(=O)C(=O)c2cn(CC(=O)N3CCCCCC3)c3ccccc23)CC1	inconclusive: 29.1 µM [inhibitor, single point]	–
O=C(Nc1ccc(S(=O)(=O)Nc2ccc(F)cc2)cc1)c1ccc(CN2CCOCC2)cc1	inconclusive: 29.1 µM [inhibitor, single point]	–
O=[N+]([O-])c1ccc(N2CCOCC2)cc1NC(c1ccccc1)c1ccccc1	active: 16.4 µM	–
COc1ccccc1N1CCN(CC(O)COc2ccc(C)cc2C)CC1 (stereo not given)	inconclusive: 29.1 µM [inhibitor, single point]	–
CCCCCCCCCCCCC/C=C/[C@@H](O)[C@@H](N)CO	active: 9.2 µM	–
COc1cc(NC(=O)Nn2cnnc2)cc(OC)c1OC	inactive	–
CCOc1ccc(NC(=O)c2ccc(CN3CCc4ccccc4C3)cc2)cc1	inconclusive: 4.11 µM [inhibitor, single point]	–
CC1(OC(=O)CCc2ccccc2)C(=O)C=C2C=C(c3ccc(C#N)cc3)N(CCN3CCOCC3)C=C2C1=O (stereo not given)	inactive	–
COc1c2c(c(OC)c3c1c(=O)c1ccccc1n3C)OCO2	inactive	–
O=C(O)C[C@H]1c2cc(C(F)(F)F)ccc2S(=O)(=O)N1C1CCN(Cc2ccccc2)CC1	inactive	–
Cc1cc(C)c(NC(=O)CSc2nnc(-c3ccncc3)n2Cc2ccco2)c(C)c1	inactive	–
COc1ccc(CC(=O)NCCc2sc3nc(-c4ccc(OC)cc4)nn3c2C)cc1	inconclusive: 23.1 µM [inhibitor, single point]	–
COc1ccc(C(=O)C2CCCN(Cc3cccn3-c3ccc(Cl)cn3)C2)c(OC)c1 (stereo not given)	active: 13 µM	–
CCc1nnc(NC(=O)[C@@H](NC(=O)c2ccc(C(C)(C)C)cc2)C(C)C)s1	inconclusive: 25.9 µM [inhibitor, partial curve]	–
COc1ccc(OC)c(-c2cc(C(=O)Nc3c(C)nn(Cc4ccccc4Cl)c3C)no2)c1	active: 14.6 µM	–
CCn1cc(C(=O)OCc2cccc(Br)c2)c(=O)c2ccc(C)nc21	inconclusive: 29.1 µM [inhibitor, single point]	–
CCc1ccc(OCc2cc(=O)n3c4c(sc3n2)CCCC4)cc1	inactive	–
CCCN(CCC)CCCNC(=O)c1cn(CC)c2ccc(S(=O)(=O)N(C)C3CCCCC3)cc2c1=O	inconclusive: 23.1 µM [inhibitor, single point] and inconclusive: 6.51 µM [inhibitor, single point]	–
